Experimental data from PubChem BioAssay AID1466 (National Center for Advancing Translational Sciences (NCATS), 2008).
The whole screen tested about 200,000 compounds, of which about 10 (0.005%) were called active. The inconclusive results got no clear call from the source; some entries with a clear call stand among them for comparison. Calls follow the shape of the dose curve; as a rule, active = well fitted inhibition curve with a large enough effect; inconclusive = small, poorly fitted or top-dose-only effect, or effect the other way, or another doubt; inactive = no such curve, though single readings can be large or run the other way. Potencies of inconclusive entries are left out as doubtful fits.

target: Lysosomal alpha-glucosidase (Homo sapiens) (UniProt P10253); assay: qHTS Assay for Inhibitors of Human alpha-Glucosidase as a Potential Chaperone Treatment of Pompe Disease; settings: purified human GAA, 4-MU-alpha-glucoside fluorescence; activity change, negative = inhibition: at 76.9 µM (top of the series) unless noted;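 as to activity change, negative = inhibition: plate controls were uninhibited enzyme wells for no effect and no-enzyme background for full effect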
How it was run: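 Fluorescence at Ex 365/Em 440 nm from 4-methylumbelliferone reported enzyme activity after 20 min at room temperature. Reactions used 4 nM enzyme and 400 uM substrate at pH 5.0; curves fitted with the Hill equation.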
Potency is read from the fitted curve at half-maximal effect; tags tell the direction and shape of the fitted curve.

Row | Compound | Potency | activity change, negative = inhibition
1 | CCN(C(=O)CSc1nc2ccccc2c(=O)n1CCOC)C1CCS(=O)(=O)C1 (stereo not given) | inconclusive [inhibitor, single point] | –
2 | Cc1cc(C(F)(F)F)nc(SCC(=O)c2cccc([N+](=O)[O-])c2)n1 | inconclusive [inhibitor, single point] | –
3 | COc1cccc(/C=C2\SC(=S)N(N3CCOCC3)C2=O)c1OC | inconclusive [inhibitor, single point] | –
4 | CCOC(=O)c1ccc2nc(Nc3nc4ccc(F)cc4s3)sc2c1 | inconclusive [activator, partial curve, poor fit] | –
5 | CCOC(=O)c1sc2ccccc2c1OC(=O)c1ccccc1OC | inconclusive [activator, single point] | –
6 | CC(C)N(Cc1cnn(C)c1)Cc1nc(-c2ccc(Cl)cc2)no1 | inconclusive [activator, single point] | –
7 | COc1ccc(NC2=CC(=O)CC(c3ccccc3)C2)cc1 (stereo not given) | – | inconclusive: 21% [activator]
8 | CC(=O)Nc1ccc(S(=O)(=O)N2CCC(NC(=O)C(Cc3cccn3C)NC(C)=O)CC2)cc1 (stereo not given) | inconclusive [inhibitor, single point] | –
9 | Cc1cc(NC(=O)Nc2ccc(F)cc2)no1 | – | inconclusive: 19.1% [activator]
10 | CCOc1ccccc1Nc1ccnc2cc(Cl)ccc12 | – | inconclusive: 14.7% [activator]
11 | O=C(Nc1ccccc1)OCc1cc(-c2ccc(Cl)cc2)on1 | inconclusive [inhibitor, partial curve, poor fit] | –
12 | O=C(NCc1cccs1)c1cc2ccccc2o1 | inconclusive [inhibitor, full curve, poor fit] | –
13 | Cc1nn(C)c(C)c1/C=C1/SC(=S)NC1=O | inconclusive [inhibitor, partial curve, poor fit] | –
14 | O=C(Nc1nc(-c2ccccn2)cs1)c1ccccc1-n1cnnn1 | inconclusive [activator, single point] | –
15 | CCS(=O)(=O)N1Cc2ccccc2CC1C(=O)OCC(=O)N(C(C)C)C(C)C (stereo not given) | inconclusive [inhibitor, full curve, poor fit] | –
16 | Cc1ccc2oc(C(=O)Nc3nnc(C)s3)c(C)c2c1 | inconclusive [activator, single point] | –
17 | Nc1nc2nc(-c3ccc(OCc4ccccc4)cc3)cc(C(F)(F)F)n2n1 | inconclusive [activator, partial curve] | –
18 | CCn1c(SCc2nc3ccccc3c(=O)[nH]2)nc2ccccc2c1=O | – | inactive: -3.51%
19 | O=C1NC(=O)c2cc(Br)cc3cccc1c23 | – | inactive: 0.285%
20 | C=CCn1c(NC(=O)c2ccco2)c(S(=O)(=O)c2ccccc2)c2nc3ccccc3nc21 | inconclusive [activator, single point] | –

Row | Compound | Potency | activity change, negative = inhibition
21 | CC(C)CC1NC(=O)N(CC(=O)N2CCN(S(=O)(=O)c3ccc4ccccc4c3)CC2)C1=O (stereo not given) | inconclusive [inhibitor, single point] | –
22 | O=C(NCc1ccccn1)C(=O)Nc1ccccc1 | inconclusive [inhibitor, single point] | –
23 | FC(F)(F)c1cccc(-c2ccc(-c3csnn3)o2)c1 | inconclusive [inhibitor, partial curve] | –
24 | COc1cc(-c2nc3ccc4ccccc4c3c3c2CCC3)cc(OC)c1OC | – | inconclusive: 24.2% [activator]
25 | Fc1cccc(Cl)c1CSc1nnc(CNc2ccccc2)o1 | inconclusive [inhibitor, full curve, poor fit] | –
26 | Cc1ccc(-c2cn3cc([N+](=O)[O-])ccc3n2)cc1 | inconclusive [inhibitor, partial curve, poor fit] | –
27 | CCOC(=O)c1c(-c2ccc(OC)cc2)cn2ccccc12 | inconclusive [activator, single point] | –
28 | CCCOC(=O)C1=C(C)NC2=C(C(=O)C(C(=O)OC)C(C)C2)C1c1ccc(N(CC)CC)cc1 (stereo not given) | inconclusive [inhibitor, partial curve] | –
29 | CCOC(=O)c1c(NC(=O)/C=C/c2ccc(C)o2)sc(C)c1C | – | inactive: -5.51%
30 | O=P(CCO)(c1ccccc1)c1ccccc1 | inconclusive [activator, partial curve] | –
31 | O=C(c1ccc(S(=O)(=O)N2CCOCC2)cc1)N(Cc1ccco1)Cc1cccs1 | inconclusive [inhibitor, partial curve, poor fit] | –
32 | O=S(=O)(c1ccccc1)N1CCC(O)(CSc2ccc(Cl)cc2)CC1 | inconclusive [inhibitor, partial curve, poor fit] | –
33 | COC(=O)c1ccccc1NC(=O)CN(c1cc(OC)ccc1OC)S(C)(=O)=O | – | inconclusive: -17.2% [inhibitor]
34 | CC1=C(C(=O)OCC2CCCO2)C(c2ccncc2)C2=C(CC(C)(C)CC2=O)N1 (stereo not given) | inconclusive [activator, partial curve] | –
35 | Cc1cc(F)ccc1S(=O)(=O)N1CCCOC1CNC(=O)C(=O)NCCc1c[nH]c2ccccc12 (stereo not given) | inconclusive [inhibitor, single point] | –
36 | CCN(CC)C(=S)Nc1ccc(OC(F)F)cc1 | – | inconclusive: 15.4% [activator]
37 | CCOC(=O)N1CCN(C(=S)NC(=O)c2cncc(Br)c2)CC1 | inconclusive [inhibitor, full curve, poor fit] | –
38 | CC1(C)CC(=O)c2cc(OCC(=O)N3CCCCCC3)ccc2O1 | inconclusive [activator, partial curve] | –
39 | CCSc1nc2nn(-c3ccccc3)c(=O)c-2c2n1CCCCC2 | inconclusive [inhibitor, single point] | –
40 | COc1ccc(-n2nc(C(=O)NCC(=O)N3CCN(Cc4ccc5c(c4)OCO5)CC3)c3ccccc3c2=O)cc1OC | inconclusive [activator, partial curve, poor fit] | –
